According to article PMC11804575, “BRAF^Δβ3-αC in-frame deletion mutants differ in their dimerization propensity, HSP90 dependence, and druggability” (Science Advances, 2023):

Biological target: the molecule itself
Assay: co-IP; HA- and Myc-tagged BRAF coexpressed in HEK293T; lysed 48 h after transfection in NLB (50 mM tris/HCl pH 7.5, 1% Triton X-100, 137 mM NaCl); anti-HA antibody and Protein G-Sepharose, 4°C overnight, eight washes; immunoblot for Myc-BRAF and HSP90, quantified per precipitated HA-BRAF

B1: BRAF^ΔLNVTAP>F R509H (natural protein, human)
chain: MAALSGGGGGGAEPGQALFNGDMEPEAGAGAGAAASSAADPAIPEEVWNIKQMIKLTQEHIEALLDKFGGEHNPPSIYLEAYEEYTSKLDALQQREQQLLESLGNGTDFSVSSSASMDTVTSSSSSSLSVLPSSLSVFQNPTDVARSNPK[left out - about 80 residues]ENVPLTTHNFVRKTFFTLAFCDFCRKLLFQGFRCQTCGYKFHQRCSTEVPLMCVNYDQLDLLFVSKFFEHHPIPQEEASLAETALTSGSSPSAPASDSIGPQILTSPSPSKSIPIPQPFRPADEDHRNQFGQRDRSSSAPNVHINTIEPVNIDDLIRDQGFRGDGGSTTGLSATPPASLPGSLTNVKALQKSPGPQRERKSSSSSEDRNRMKTLGRRDSSDDWEIPDGQITVGQRIGSGSFGTVYKGKWHGDVAVKMFTPQQLQAFKNEVGVLRKTHHVNILLFMGYSTKPQLAIVTQWCEGSSLYHHLHIIETKFEMIKLIDIARQTAQGMDYLHAKSIIHRDLKSNNIFLHEDLTVKIGDFGLATVKSRWSGSHQFEQLSGSILWMAPEVIRMQDKNPYSFQSDVYAFGIVLYELMTGQLPYSNINNRDQIIFMVGRGYLSPDLSKVRSNCPKAMKRLMAECLKKKRDERPLFPQILASIELLARSLPKIHRSASEPSLNRAGFQTEDFSLYACASPKTPIQAGGYGAFPVH
notes: human BRAF ΔLNVTAP>F with the dimer interface mutation R509H; Residue numbers count on wild-type BRAF; The second co-expressed copy carried a C-terminal Myc tag instead of HA; source: HEK293T, transiently transfected, in lysate; not shown: HA, N-terminal, kept
fold homodimerization capacity over BRAF^V600E: 5 fold
